{
  "source": "PubChem BioAssay AID463173",
  "about": "(ICCB-Longwood Screening Facility, Harvard Medical School, 2010)",
  "note": "The campaign covered roughly 52,000 compounds. About 4,300 (8.3%) were called active. Rule as the data show it: active = survival mostly below about 52% (no sharp cut-off); inactive = mostly above about 56%. This is one part of the list.",
  "data": [
    {"system": "DeltatarO mutant", "assay": "S. aureus survival, RN4220 and DeltatarO strains – OD600, teichoic acid synthesis inhibitors, primary screen (AID 463173)", "details": "S. aureus RN4220 wild type/DeltatarO growth, OD600, 18 h, stronger effect = lower value, screened at 18.75 µg/mL (by protocol)", "values": [
      {"smiles": "COc1cccc2c1ncc1c(-c3ccc(C)cc3)nn(-c3ccc(F)cc3)c12", "survival": "inactive: 80%"},
      {"smiles": "CC1Cc2ccccc2N1C(=O)CSc1nnc(CSc2ncccn2)n1C", "note": "(configuration not stated)", "survival": "inactive: 111%"},
      {"smiles": "Cc1oc2ccc(O)c(CN3CCCC3)c2c1C(=O)Nc1ccc(C(C)C)cc1", "survival": "inactive: 68%"},
      {"smiles": "C#CCOc1ccc(-c2nnc(Nc3ccc(NC(C)=O)cc3)c3ccccc23)cc1", "survival": "inactive: 60%"},
      {"smiles": "Cc1ccc(Cl)cc1N1CCN(C(=O)c2c(C)oc3ncnc(N4CCCCC4)c23)CC1", "survival": "active: -4%"},
      {"smiles": "CCc1cc(C(=O)Nc2sc(C)c(CC)c2C#N)no1", "survival": "active: 35%"},
      {"smiles": "CN(C)c1ccc(-c2cc(-c3ccccc3)c(C#N)c(N)n2)cc1", "survival": "inactive: 105%"},
      {"smiles": "CC1CCc2sc3ncnc(NCCCN(C)C)c3c2C1", "note": "(configuration not stated)", "survival": "inactive: 117%"},
      {"smiles": "CCc1ccc(CN2CCc3nc(N4CCN(c5ccccc5F)CC4)ncc3C2)cc1", "survival": "inactive: 54%"},
      {"smiles": "CCCCOc1cccc(C(=O)Nc2cc(NC(=O)c3ccco3)ccc2OC)c1", "survival": "active: 23%"},
      {"smiles": "COc1cccc(NC(=O)CCc2c(C)nc3nc(CNC(=O)c4cccc(F)c4)nn3c2C)c1", "survival": "inactive: 76%"},
      {"smiles": "Cc1ccc(CNC(=O)c2c(O)nc3cc(C)ccn3c2=O)cc1", "survival": "inactive: 76%"},
      {"smiles": "Cc1ccc2c(c1)-c1c(cnc3cc(-c4ccc(F)cc4)nn13)CO2", "survival": "inactive: 72%"},
      {"smiles": "CCc1ccc(C2=C(C)C(N3CCC(C(=O)NCc4ccccc4)CC3)=NS2(=O)=O)cc1", "survival": "inactive: 89%"},
      {"smiles": "COc1ccc(-c2cnc(C)o2)cc1S(=O)(=O)Nc1c(C)cc(C)cc1C", "survival": "inactive: 71%"},
      {"smiles": "CCC(CC)N1CCN(S(=O)(=O)CC)CC1", "survival": "inactive: 86%"},
      {"smiles": "CC(c1ccccc1)n1cc2c(c1-c1ccccc1Br)c(=O)n(C)c(=O)n2C", "note": "(configuration not stated)", "survival": "inactive: 82%"},
      {"smiles": "CN(C)c1ccc(CN(CC2CCCO2)C(=O)c2ccc(Br)cc2)cc1", "note": "(configuration not stated)", "survival": "inactive: 64%"},
      {"smiles": "Cc1ccc2[nH]c3c(=O)n(CC(=O)N4CCN(c5cccc(C(F)(F)F)c5)CC4)ncc3c2c1", "survival": "inactive: 78%"},
      {"smiles": "CCOc1ccc(N2C(=O)N(Cc3c(F)cccc3Cl)c3ccccc3S2(=O)=O)cc1", "survival": "inactive: 91%"},
      {"smiles": "CCCN1C(=O)/C(=c2\\sc3n(c2=O)C(c2ccccc2)C(C(=O)OC)=C(C)N=3)c2ccccc21", "note": "(configuration not stated)", "survival": "inactive: 74%"},
      {"smiles": "COc1cccc(CNC(=O)CN2C(=O)CSc3c2c(C)nn3-c2ccccc2)c1", "survival": "inactive: 94%"},
      {"smiles": "Cc1ccc(-n2c(=O)c3ccc(C(=O)NCc4ccccc4Cl)cc3n(CC(=O)Nc3cccc(F)c3)c2=O)cc1", "survival": "inactive: 75%"},
      {"smiles": "Cc1ccc2[nH]c(CSc3nnc(COc4ccccc4C)n3C)cc(=O)c2c1", "survival": "inactive: 67%"},
      {"smiles": "CCCCN(CCCC)CCNC(=O)c1cc(-c2cccnc2)nc2ccc(S(=O)(=O)N3CCC(C)CC3)cc12", "survival": "inactive: 96%"},
      {"smiles": "CCOc1ccc2nc(N3CCCC(C(=O)Nc4cccc(Cl)c4C)C3)sc2c1", "note": "(configuration not stated)", "survival": "inactive: 65%"},
      {"smiles": "CCc1cc2c(cc3c(=O)n(CC(=O)N4CCCCC4)ncn32)s1", "survival": "inactive: 109%"},
      {"smiles": "Cc1ccc(Cl)cc1NC(=O)CN1C(=O)COc2ccc(S(=O)(=O)N3CCOCC3)cc21", "survival": "inactive: 101%"},
      {"smiles": "CCCCn1cc(S(=O)(=O)c2ccc(F)cc2)c(=O)c2ccccc21", "survival": "inactive: 94%"},
      {"smiles": "COc1ccccc1CNC(=O)c1ccc(-c2nc(CS(=O)c3ccccc3)c(C)o2)cc1", "note": "(configuration not stated)", "survival": "inactive: 89%"},
      {"smiles": "Cc1cc(F)ccc1NC(=O)C1CCCN(S(=O)(=O)c2ccc3c(c2)CCCC(=O)N3)C1", "note": "(configuration not stated)", "survival": "inactive: 65%"},
      {"smiles": "Cc1cnc2c(c1SCC(=O)Nc1ccc(F)cc1F)c(=O)n(C)c(=O)n2C", "survival": "inactive: 74%"},
      {"smiles": "COc1ccc(Cn2c(SCC(N)=O)nc3c(sc4ccccc43)c2=O)cc1", "survival": "inactive: 88%"},
      {"smiles": "COc1ccc(S(=O)(=O)c2c(Nc3ccc(C)cc3)sc(C(=O)c3ccc4c(c3)OCO4)c2N)cc1", "survival": "inactive: 100%"},
      {"smiles": "CC1CCCCN1C(=O)CSc1nc(C2CC2)nc2ccccc12", "note": "(configuration not stated)", "survival": "inactive: 82%"},
      {"smiles": "COc1cc(OC)c(NC(=O)Cn2cnc3sc(C)c(S(=O)(=O)N4CCN(C)CC4)c3c2=O)cc1Cl", "survival": "inactive: 157%"},
      {"smiles": "Cc1ccc(S(=O)(=O)c2nc(-c3ccco3)oc2SCC(C)C)cc1", "survival": "active: 48%"},
      {"smiles": "COc1ccc2ncc3c(-c4ccc(C)c(C)c4)nn(CC(=O)NC4CCCCC4)c3c2c1", "survival": "inactive: 98%"},
      {"smiles": "O=C(COCc1cc(-c2cccs2)on1)Nc1ccc(OC(F)(F)F)cc1", "survival": "inactive: 106%"},
      {"smiles": "CCCCOc1ccc(NC(=O)Cn2nnnc2-c2ccccc2F)cc1", "survival": "inactive: 77%"},
      {"smiles": "Cc1cc2c(cc1C)NC(CC(=O)Nc1ccccc1SC(F)(F)F)C(=O)N2", "note": "(configuration not stated)", "survival": "inactive: 81%"},
      {"smiles": "COC(=O)NCc1c(C)nn(-c2ccccc2)c1-n1cccc1", "survival": "inactive: 96%"},
      {"smiles": "COc1ccc(CNC(=O)c2cc3c(s2)-c2c(C)cccc2OC3)cc1", "survival": "inactive: 87%"},
      {"smiles": "CCOC(=O)c1oc2c(c1C)-c1nn(Cc3ccccc3Cl)cc1CC2", "survival": "active: 38%"},
      {"smiles": "c1ccc(CN2CCCC2)nc1", "survival": "inactive: 91%"},
      {"smiles": "CCc1ccccc1NC(=O)CN1C(=O)c2cccnc2Oc2ccc(Cl)cc21", "survival": "inactive: 104%"},
      {"smiles": "CCOc1ccc(Br)cc1CNCCSc1nnnn1-c1ccccc1", "survival": "active: 23%"},
      {"smiles": "CCc1ccc(NC(=O)c2nn(-c3ccc(C)cc3)c(=O)n(C)c2=O)cc1", "survival": "inactive: 77%"},
      {"smiles": "CC(C)(C)OC(=O)N1CCC(c2c(C(=O)Nc3ccc4c(c3)OCCO4)cnn2-c2ccccc2)CC1", "survival": "inactive: 96%"},
      {"smiles": "c1ccc2c3c([nH]c2c1)-c1nonc1CC3", "survival": "inactive: 85%"},
      {"smiles": "CC1CCCC(C)N1C(=O)c1cc2sccc2n1Cc1ccc(F)cc1", "note": "(configuration not stated)", "survival": "inactive: 86%"},
      {"smiles": "COc1ccc(CNc2cc(-c3ccc(OC)cc3)nc3nncn23)cc1", "survival": "inactive: 61%"},
      {"smiles": "Cc1ccc(NC(=O)Cn2c(=O)n(CCC(=O)NCc3ccc4c(c3)OCO4)c(=O)c3sccc32)c(C)c1", "survival": "active: 87%"},
      {"smiles": "Cn1c(=O)n(-c2cccc(Cl)c2)c(=O)c2sc3ccccc3c21", "survival": "inactive: 74%"},
      {"smiles": "Cc1cc(NC(=O)Cn2nc(C)n3cccc3c2=O)ccc1Br", "survival": "inactive: 88%"},
      {"smiles": "CCOC(=O)N1CCC2(CC1)OC(=O)C(C)=C2C(=O)NCc1cccc(OC)c1", "survival": "inactive: 135%"},
      {"smiles": "COc1ccc(NC(=O)CC2C(=O)N(c3ccc(C)cc3)C(=O)N2Cc2cccnc2)cc1", "note": "(configuration not stated)", "survival": "inactive: 102%"}
    ]}
  ]
}
